In paper PMC6911104:
No constants are given. Whether binding was seen depends on the method and setting. In cells and extracts the contact can be indirect. Some binding calls cover weakened binding; strength is not graded here. For some assays here: Sequences can lack the tags named with a protein.

The chains behind the UniProt entries cited, without tags or fusion partners. Where a name states a change or a piece, a line headed by the entry shows the natural chain unless it says otherwise.
UniProt O60934: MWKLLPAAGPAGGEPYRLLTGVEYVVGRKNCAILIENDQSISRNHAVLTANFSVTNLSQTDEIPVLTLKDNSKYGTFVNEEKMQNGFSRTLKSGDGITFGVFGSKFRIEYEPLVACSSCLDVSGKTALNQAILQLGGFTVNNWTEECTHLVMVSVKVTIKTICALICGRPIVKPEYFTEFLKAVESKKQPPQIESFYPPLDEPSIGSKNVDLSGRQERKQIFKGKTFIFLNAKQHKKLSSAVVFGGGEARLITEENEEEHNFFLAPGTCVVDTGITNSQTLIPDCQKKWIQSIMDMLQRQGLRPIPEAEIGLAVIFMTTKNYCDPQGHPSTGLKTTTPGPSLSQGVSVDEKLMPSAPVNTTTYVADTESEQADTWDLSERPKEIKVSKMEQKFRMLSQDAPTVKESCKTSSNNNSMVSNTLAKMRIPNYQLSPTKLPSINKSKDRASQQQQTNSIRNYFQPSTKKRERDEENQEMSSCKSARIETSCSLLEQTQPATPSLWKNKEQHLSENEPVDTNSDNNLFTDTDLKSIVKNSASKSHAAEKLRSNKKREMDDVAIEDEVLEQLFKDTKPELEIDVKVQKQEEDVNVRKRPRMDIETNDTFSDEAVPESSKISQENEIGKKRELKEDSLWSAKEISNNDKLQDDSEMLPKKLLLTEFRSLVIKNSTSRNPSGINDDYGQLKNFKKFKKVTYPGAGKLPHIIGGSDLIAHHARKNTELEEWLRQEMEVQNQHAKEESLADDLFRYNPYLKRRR
UniProt P45973: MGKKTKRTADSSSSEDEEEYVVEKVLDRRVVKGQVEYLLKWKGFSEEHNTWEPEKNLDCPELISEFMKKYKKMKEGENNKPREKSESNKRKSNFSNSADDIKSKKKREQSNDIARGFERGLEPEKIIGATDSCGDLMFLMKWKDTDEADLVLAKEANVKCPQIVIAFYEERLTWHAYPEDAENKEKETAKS

T1: GST-HP1a^CSD (Drosophila melanogaster) (UniProt P05205)
T1 sequence: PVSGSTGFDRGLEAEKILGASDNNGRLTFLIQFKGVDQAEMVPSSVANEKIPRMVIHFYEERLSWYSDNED

B1: Rad50 (Drosophila, endogenous) (protein, UniProt Q9W252 1-1318)
chain: MSSIESLSIQGIRSFGTYADDLQSIKFSSPVTLILGENGCGKTTVVECLKYALTGECPPGSDRGKSFVHDPKIFGLNEVLAQIKMQVRDRRGAQVSICRTMKVSKKRNKMSFETMDSTINFLTGAGQSKREKQDSLSGRSVDIDVAISDFMGVSKAIINNVLFCHQEDSSWPLDESKKLKEKFDAIFGITEYNKALDKIIKLRKEAMEELKIKEANIKHVAYLKQEMEVKTLNLQKAQRKCDAIKAQCSECEEEMKPIEARLVEIRNVEFEIGKYQAQKVEMDTKHKNCKDQISTLTLKIKKPFRGTLDELDQEISNFDQRMLEMRQKRTEVEGDLSQIKRSSVAEQEKLGTQDRKHCLAKQRHQSELACRAQLLKRVKEFCRELHIPIDCDLVEQPEKMGEVLRDIEAMIITKHCEITEIVEQNEKADRSRQVKIDELRIELTKSEQSVTAQEKQRESSKRESETLGVEIKKIETSMQDLKKLEKEINEVNELYESATKNIDQQAIKDAIARKKASIAENQIQFKKLDEQLTFLGSMAKLVAECSLKQKELDKKNQEVHRVRSRHSDHFGKLFKEPITCNYRRSMQVVYEKLRREIQELNEKANTQKLKEQSYEIKRKNLISDISRMEKELKDSEELIYQKCRSTPYDDLLERSKTTISKLQFDHGALKSSEALYKKYIQKMDEEPSCPLCHHNMTSDEACDLTSELTDEIQKLPDNITRAEKALKAEQIKYENLLQLKPTILKVKELKDSLPQKKEELKKVEELLGDSVSEYETLIALIGEPTHNMELANSMMGDMSLLDEALKDSARLTKDLDLQKGQLPASYDSSVSMDDLQAEKSKVSKELETERKELESAQNAVQQQMDALNRLREKKNSLKDRQIHLREGLQSLPQLKERLEKLNSFLTTVASEISELKAKIQPLKLNLRAAIEEKERLKKSESEKLAQLNSKYNSYKSTDHDIQRLNKEAEDYAKLDLRNEIKKLDEIIMASKDKLRKLEAEISLKTDELETIKTECSNQQTVERDLKDNRELKQLEDKEAKLRESCQVLDKQLGNLDFHSVSKEKVNLTKQRDKATVRKGELLGQLGEIHSQVNKLQREIDEPRFKESLKNFRKANYEIEVTRLCIEDLGQYRLALEWALIQFHSEKMEMINRLIREYWRKIYRGNDIDYIQVKTDEVSSDASADRRKTYNYRVVQSKNYSEIEMRGRCSAGQRVLASLIIRLALAETFSSNCGVLALDEPTTNLDRANINSLCEALNCIVEERQSQSNFMLIIITHDENFVSSLGKITSYHRVFRNEECKSVIRRVEAGPSKKALIDQ
B2: Mre11 (Drosophila, endogenous) (protein, UniProt Q9XYZ4 1-620)
chain: MNGTTTAEQDADNVIRILVATDNHLGYGEKDAVRGEDSFTAFEEILELAVSEDVDMILLGGDLFHDAVPSQNALHKCIELLRRYTFGDRPVSLEILSDQGQCFHNAVNQSVNYEDPNLNIAIPVFSIHGNHDDPSGFGRLSSLDLLSTSGLVNYFGRWTDLTQVEISPVLMRKGESQLALYGLSHIHDGRLARLIKDFKVKFNCPENVANGEDGNESKEEEDWFHLLVVHQNRADRGPKNYLPEDLLPSFLHLVIWGHEHDCRIEPEENAKKRFYVSQPGSSVPTSLSEGEAKKKHVGLLEIYKGKFKLKPLPLETVRPFVYESVVLADHADELGLVEGDASTKVFKFAQERVEAMIERAVAQHTGHPKQPTLPLIRLRLLYTDESCMFNAIRFGEMLSTRVANVQDVVQFSKVVKRTKTEAVNLDKEALRRALEADNATRVEELVDRYFEEAKSNKPLKLFHSKALAEMTYRLLEQRDADAAENIVKFYKEKAVDHLMEAMPNDENIDEELERFRALHKHGDLLKMLDTQGLKVKKEEKSMSVLGSEVNVSTAPATGRGAARGRGTARTRAGATAATRGKGQLDVTVSSTRTSGRQQTLLSSLMGSRNTASYVISDDSD
B3: Nbs (Drosophila, endogenous) (protein, UniProt Q9VT40 1-818)
chain: MFVLTKDDEKFVLFPGKKVYTIGRLATDLIVAQDLSISRNHAQLLIQTEADGDDTLHIEDLGSRYGTFIFPKNSQKPRKVPAKTSTPLPVGTRLRFGANMSIWQVTQLKLVTTVSALTRSEVQELTKMLEPMGGTVTSNWTEECSHLTMNEVSVTVKLLHAMLENKPIVTFPYWRKMLQAAQSIHVKEGWPQPEDYQPTNIDVTWRPERTRLFAGKTFVFMNRKHFDMYGSVVQKAGATCKDINSGVRKTFLTKSDVIVIQYVPSSQSQATESINSIQDRYILEQNGRRIIQEYEIGMALIHCSITEFCNPTHKFISDSLPTTESVTSSMAFNSSIIVPNTERHSAQSNATPISELVVPESIECEMEQDASKPHSEDQASLRKRSHASTVDSSDEEKKSTLSKRAKSDIATKLTMKSKNAILLDSSLEEDVTPAPAPAPVQRVTRQSKAIAEEKSVHPPVPAASKHITRKTKQVFCVDSSDEENENARKPKETPAPTIPSMAKKKTEAPVATRISPRLNGKSLATNITNQPADKHAVPAKRPVLSVASSDEEDEGDLFQFRKSPQKPAETVVQPRIAGKGNAPARISVVDFLEKSQAQEPAPVPPQLESQSQTQPRKRLRLELLNESDSDDCDNLFNFADSKKKRKTQEAQRNDDSTDGLFNFNSERPSDHDDEDSRLTEPFVPETESKKQSKYIVAPRRDRPKKVDISGWLSCSRLNDNIKSEIDADSVKMETSIKADPDEEQWLAAMKDSIEVRMCNLNIVIRSQEEVDASLEDSVNKHGGRKNFKKFVKTKNPHPQKRIVALKSLRLADGMVTCV
B4: Nbs-HA (protein, UniProt Q9VT40 1-818)
chain: B3 chain

Columns and labels:
[1] = molecular target: NBS1 (human, endogenous) (human (endogenous in MRC5)) (UniProt O60934); experiment: co-IP; whole-cell lysates of human fibroblasts (MRC5 untreated or 5 Gy X-rays, 0.5 h; NBS cells; NBS cells expressing NBS1 S343A); IP with anti-HP1α or anti-NBS1 (A-2 N-terminal, B-5 C-terminal), protein A/G agarose, 4 °C, washes in NP-40 lysis buffer
[2] = molecular target: NBS1 (human, endogenous) (human (endogenous in MRC5)) (UniProt O60934); experiment: condition: only lysate treated with 10 U alkaline phosphatase; co-IP; human whole-protein lysates incubated 1 h at 37 °C with 10 U alkaline phosphatase before immunoprecipitation (anti-HP1α IP for NBS cells, blot with C-terminal anti-NBS1)
[3] = molecular target: HP1α (human, endogenous) (human (endogenous in MRC5 and NBS fibroblasts)) (UniProt P45973); experiment: co-IP; whole-cell lysates of human fibroblasts (MRC5 untreated or 5 Gy X-rays, 0.5 h; NBS cells; NBS cells expressing NBS1 S343A); IP with anti-HP1α or anti-NBS1 (A-2 N-terminal, B-5 C-terminal), protein A/G agarose, 4 °C, washes in NP-40 lysis buffer
[4] = molecular target: HP1a-FLAG (Drosophila melanogaster) (UniProt P05205); experiment: co-IP; extracts of S2 cells overexpressing HP1a-FLAG; anti-FLAG M2 affinity agarose, 2 h at 4 °C, IP buffer (50 mM Tris-HCl pH 7.5, 150 mM NaCl, 1% Triton, 1 mM EDTA); blots for endogenous Rad50, Mre11, Nbs
[5] = molecular target: GST-HP1a^I191E (Drosophila melanogaster) (UniProt P05205); experiment: pull-down; GST-HP1a proteins on glutathione Sepharose beads (4 μM) incubated with 30 μg extract of S2 cells transfected with Nbs-HA, IP buffer with 10% glycerol, 2 h at 4 °C; Nbs detected with anti-HA, Rad50 and Mre11 with specific antibodies; only the target purified
[6] = molecular target: T1, GST-HP1a^CSD (Drosophila melanogaster); experiment: as above
[7] = molecular target: GST-tagged full-length (FL) HP1a (1-206) (Drosophila melanogaster) (UniProt P05205); experiment: as above

| Molecule | binding [4] | binding [5] | binding [6] | binding [7] | further results |
| --- | --- | --- | --- | --- | --- |
| HP1α (human, endogenous) (from UniProt P45973 1-191) |  |  |  |  | binding [1]: binds; binding [2]: no binding |
| NBS1^S343A (from UniProt O60934 1-754) |  |  |  |  | binding [3]: no binding |
| B1 | binds | binds | binds | binds |  |
| B2 | binds | binds | binds | binds |  |
| B3 | binds |  |  |  |  |
| B4 |  |  | binds | binds |  |
